Data from patent US20230278972A1, “SUBSTITUTED HALOALKYL SULFONANILIDE HERBICIDES” (FMC Corporation, priority 2020, published 2023).

What was measured:
Details in all cases: Flood, 250 g ai/ha; visual rating after 13 to 15 days; scale of 0 to 100 where 0 is no effect and 100 is complete control
[1] = system: barnyardgrass (Echinochloa crus-galli); test: Test B flooded paddy test, barnyardgrass
[2] = system: sedge, umbrella (small-flower umbrella sedge, Cyperus difformis); test: Test B flooded paddy test, sedge, umbrella
[3] = system: ducksalad (Heteranthera limosa); test: Test B flooded paddy test, ducksalad
rice (Oryza sativa) = test: Test B flooded paddy test, rice

**Q.** How did the “Plant response rating, Barnyardgrass” value [1] turn out when `Cc1cc(C)c(C(=O)N2CCC(F)CC2)cc1NS(=O)(=O)C(F)(F)F` [Compound 8] was run?
**A.** 25

**Q.** What about the “Plant response rating, Sedge, Umbrella” value [2] of the same compound?
**A.** 90

**Q.** What about the “Plant response rating, Ducksalad” value [3] of the same compound?
**A.** 80

**Q.** What about the “Plant response rating, Rice” value (rice (Oryza sativa)) of the same compound?
**A.** 0

**Q.** Which results are given for `Cc1cc(C)c(C(=O)N2CC(C)OC(C)C2)cc1NS(=O)(=O)C(F)(F)F` (stereo not drawn) [Compound 9]?
**A.** Plant response rating, Barnyardgrass [1]: 85; Plant response rating, Sedge, Umbrella [2]: 95; Plant response rating, Ducksalad [3]: 95; Plant response rating, Rice (rice (Oryza sativa)): 10

**Q.** How did the “Plant response rating, Barnyardgrass” value [1] turn out when `Cc1cc(C)c(C(=O)N2CCN(C)CC2)cc1NS(=O)(=O)C(F)(F)F` [Compound 10] was run?
**A.** 0

**Q.** And the “Plant response rating, Sedge, Umbrella” value [2]?
**A.** 0

**Q.** And the “Plant response rating, Ducksalad” value [3]?
**A.** 0

**Q.** What about the “Plant response rating, Rice” value (rice (Oryza sativa)) of the same compound?
**A.** 0

**Q.** Which “Plant response rating, Barnyardgrass” value [1] does the source give for `Cc1cc(C)c(C(=O)N2CCC(C#N)CC2)cc1NS(=O)(=O)C(F)(F)F` [Compound 11] here?
**A.** 0

**Q.** What about the “Plant response rating, Sedge, Umbrella” value [2] of the same compound?
**A.** 0

**Q.** What about the “Plant response rating, Ducksalad” value [3] of the same compound?
**A.** 0

**Q.** What about the “Plant response rating, Rice” value (rice (Oryza sativa)) of the same compound?
**A.** 0

**Q.** What does the source list for `Cc1cc(C)c(C(=O)N2CCSCC2)cc1NS(=O)(=O)C(F)(F)F` [Compound 12]?
**A.** Plant response rating, Barnyardgrass [1]: 0; Plant response rating, Sedge, Umbrella [2]: 0; Plant response rating, Ducksalad [3]: 0; Plant response rating, Rice (rice (Oryza sativa)): 0

**Q.** Which results are given for `Cc1cc(C2CC2)c(NS(=O)(=O)C(F)(F)F)cc1C(=O)N1CCOCC1` [Compound 13]?
**A.** Plant response rating, Barnyardgrass [1]: 0; Plant response rating, Sedge, Umbrella [2]: 35; Plant response rating, Ducksalad [3]: 0; Plant response rating, Rice (rice (Oryza sativa)): 0

**Q.** How did the “Plant response rating, Barnyardgrass” value [1] turn out when `Cc1cc(Br)c(NS(=O)(=O)C(F)(F)F)cc1C(=O)N1CCOCC1` [Compound 14] was run?
**A.** 0

**Q.** What about the “Plant response rating, Sedge, Umbrella” value [2] of the same compound?
**A.** 90

**Q.** And the “Plant response rating, Ducksalad” value [3]?
**A.** 20

**Q.** What about the “Plant response rating, Rice” value (rice (Oryza sativa)) of the same compound?
**A.** 10

**Q.** How did the “Plant response rating, Barnyardgrass” value [1] turn out when `O=C(c1ccc(Cl)c(NS(=O)(=O)C(F)(F)F)c1)N1CCOCC1` [Compound 15] was run?
**A.** 0

**Q.** What about the “Plant response rating, Sedge, Umbrella” value [2] of the same compound?
**A.** 0

**Q.** What about the “Plant response rating, Ducksalad” value [3] of the same compound?
**A.** 0

**Q.** And the “Plant response rating, Rice” value (rice (Oryza sativa))?
**A.** 0

**Q.** Which “Plant response rating, Barnyardgrass” value [1] does the source give for `Cc1cc(Cl)c(NS(=O)(=O)C(F)(F)F)cc1C(=O)N1CCC(C#N)CC1` [Compound 17] here?
**A.** 0

**Q.** And the “Plant response rating, Sedge, Umbrella” value [2]?
**A.** 95

**Q.** What about the “Plant response rating, Ducksalad” value [3] of the same compound?
**A.** 70

**Q.** What about the “Plant response rating, Rice” value (rice (Oryza sativa)) of the same compound?
**A.** 0

**Q.** How did the “Plant response rating, Barnyardgrass” value [1] turn out when `COC1CCN(C(=O)c2cc(NS(=O)(=O)C(F)(F)F)c(C)cc2C)CC1` [Compound 19] was run?
**A.** 25

**Q.** What about the “Plant response rating, Sedge, Umbrella” value [2] of the same compound?
**A.** 95

**Q.** And the “Plant response rating, Ducksalad” value [3]?
**A.** 85

**Q.** What about the “Plant response rating, Rice” value (rice (Oryza sativa)) of the same compound?
**A.** 10

**Q.** How did the “Plant response rating, Barnyardgrass” value [1] turn out when `Cc1cc(Cl)c(NS(=O)(=O)C(F)(F)F)cc1C(=O)N1CC(C)OC(C)C1` (stereo not drawn) [Compound 20] was run?
**A.** 20

**Q.** What about the “Plant response rating, Sedge, Umbrella” value [2] of the same compound?
**A.** 90

**Q.** And the “Plant response rating, Ducksalad” value [3]?
**A.** 70

**Q.** And the “Plant response rating, Rice” value (rice (Oryza sativa))?
**A.** 0

**Q.** How did the “Plant response rating, Barnyardgrass” value [1] turn out when `CCN(CC)C(=O)c1cc(NS(=O)(=O)C(F)(F)F)c(Cl)cc1C` [Compound 21] was run?
**A.** 0

**Q.** What about the “Plant response rating, Sedge, Umbrella” value [2] of the same compound?
**A.** 90

**Q.** What about the “Plant response rating, Ducksalad” value [3] of the same compound?
**A.** 15

**Q.** What about the “Plant response rating, Rice” value (rice (Oryza sativa)) of the same compound?
**A.** 0

**Q.** `Cc1cc(Cl)c(NS(=O)(=O)C(F)(F)F)cc1C(=O)N(C)C` [Compound 23] was tested. Which “Plant response rating, Barnyardgrass” value [1] did it give?
**A.** 10

**Q.** And the “Plant response rating, Sedge, Umbrella” value [2]?
**A.** 95

**Q.** What about the “Plant response rating, Ducksalad” value [3] of the same compound?
**A.** 90

**Q.** What about the “Plant response rating, Rice” value (rice (Oryza sativa)) of the same compound?
**A.** 15

**Q.** Which results are given for `Cc1cc(Cl)c(NS(=O)(=O)C(F)(F)F)cc1C(=O)N1CCSCC1` [Compound 26]?
**A.** Plant response rating, Barnyardgrass [1]: 0; Plant response rating, Sedge, Umbrella [2]: 0; Plant response rating, Ducksalad [3]: 0; Plant response rating, Rice (rice (Oryza sativa)): 0

**Q.** `CCc1cc(-c2cc(N(S(=O)(=O)C(F)(F)F)S(=O)(=O)C(F)(F)F)c(C)cc2C)c(=O)n(C)n1` [Compound 28] was tested. Which “Plant response rating, Barnyardgrass” value [1] did it give?
**A.** 0

**Q.** What about the “Plant response rating, Sedge, Umbrella” value [2] of the same compound?
**A.** 0

**Q.** What about the “Plant response rating, Ducksalad” value [3] of the same compound?
**A.** 0

**Q.** And the “Plant response rating, Rice” value (rice (Oryza sativa))?
**A.** 0

**Q.** Which results are given for `Cc1cc(Cl)c(NS(=O)(=O)C(F)(F)F)cc1-c1cn(C)c(=O)n(C)c1=O` [Compound 29]?
**A.** Plant response rating, Barnyardgrass [1]: 0; Plant response rating, Sedge, Umbrella [2]: 85; Plant response rating, Ducksalad [3]: 0; Plant response rating, Rice (rice (Oryza sativa)): 15

**Q.** `CCn1cc(-c2cc(N(S(=O)(=O)C(F)(F)F)S(=O)(=O)C(F)(F)F)c(C)cc2C)c(=O)n(C)c1=O` [Compound 30] was tested. Which “Plant response rating, Barnyardgrass” value [1] did it give?
**A.** 0

**Q.** What about the “Plant response rating, Sedge, Umbrella” value [2] of the same compound?
**A.** 35

**Q.** What about the “Plant response rating, Ducksalad” value [3] of the same compound?
**A.** 20

**Q.** And the “Plant response rating, Rice” value (rice (Oryza sativa))?
**A.** 70

**Q.** For `CCn1cc(-c2cc(NS(=O)(=O)C(F)(F)F)c(C)cc2C)c(=O)n(C)c1=O` [Compound 32], which “Plant response rating, Barnyardgrass” value [1] is on record?
**A.** 0

**Q.** What about the “Plant response rating, Sedge, Umbrella” value [2] of the same compound?
**A.** 65

**Q.** What about the “Plant response rating, Ducksalad” value [3] of the same compound?
**A.** 45

**Q.** And the “Plant response rating, Rice” value (rice (Oryza sativa))?
**A.** 70

**Q.** Which results are given for `COc1cc(-c2cc(N(S(=O)(=O)C(F)(F)F)S(=O)(=O)C(F)(F)F)c(C)cc2C)c(=O)n(C)n1` [Compound 35]?
**A.** Plant response rating, Barnyardgrass [1]: 0; Plant response rating, Sedge, Umbrella [2]: 85; Plant response rating, Ducksalad [3]: 0; Plant response rating, Rice (rice (Oryza sativa)): 0

**Q.** What does the source list for `CSc1cc(-c2cc(NS(=O)(=O)C(F)(F)F)c(C)cc2C)c(=O)n(C)n1` [Compound 36]?
**A.** Plant response rating, Barnyardgrass [1]: 0; Plant response rating, Sedge, Umbrella [2]: 0; Plant response rating, Ducksalad [3]: 0; Plant response rating, Rice (rice (Oryza sativa)): 0

**Q.** `CCn1c(=O)c(-c2cc(NS(=O)(=O)C(F)(F)F)c(C)cc2C)cn(C)c1=O` [Compound 37] was tested. Which “Plant response rating, Barnyardgrass” value [1] did it give?
**A.** 65

**Q.** And the “Plant response rating, Sedge, Umbrella” value [2]?
**A.** 45

**Q.** What about the “Plant response rating, Ducksalad” value [3] of the same compound?
**A.** 25

**Q.** What about the “Plant response rating, Rice” value (rice (Oryza sativa)) of the same compound?
**A.** 70

**Q.** Which results are given for `Cc1cc(Cl)c(N(S(=O)(=O)C(F)(F)F)S(=O)(=O)C(F)(F)F)cc1-c1cn(C)c(=O)n(C)c1=O` [Compound 38]?
**A.** Plant response rating, Barnyardgrass [1]: 0; Plant response rating, Sedge, Umbrella [2]: 75; Plant response rating, Ducksalad [3]: 70; Plant response rating, Rice (rice (Oryza sativa)): 25

**Q.** For `Cc1cc(C)c(N(S(C)(=O)=O)S(=O)(=O)C(F)(F)F)cc1-c1cc(C(C)C)nn(C)c1=O` [Compound 39], which “Plant response rating, Barnyardgrass” value [1] is on record?
**A.** 0

**Q.** And the “Plant response rating, Sedge, Umbrella” value [2]?
**A.** 80

**Q.** And the “Plant response rating, Ducksalad” value [3]?
**A.** 0

**Q.** And the “Plant response rating, Rice” value (rice (Oryza sativa))?
**A.** 5

**Q.** Which “Plant response rating, Barnyardgrass” value [1] does the source give for `COc1cnn(-c2cc(N(S(=O)(=O)C(F)(F)F)S(=O)(=O)C(F)(F)F)c(C)cc2C)c(=O)c1OC` [Compound 40] here?
**A.** 0

**Q.** And the “Plant response rating, Sedge, Umbrella” value [2]?
**A.** 0

**Q.** And the “Plant response rating, Ducksalad” value [3]?
**A.** 0

**Q.** What about the “Plant response rating, Rice” value (rice (Oryza sativa)) of the same compound?
**A.** 0
